Measured values as given in US20240067727A1 (OSE IMMUNOTHERAPEUTICS, published 2024).

Tests used:
CD127 [1] = molecular target: T1, CD127 (UniProt P16871 21-239, limits assumed); assay: bridging ELISA: PD-1 immobilised, varied bifunctional molecule plus a fixed quantity of His-tagged CD127, detection with anti-His-biotin and streptavidin-peroxidase
T1 construct: For the Biacore assay the construct is not described; also called CD127 receptor; IL-7Ralpha
T1 sequence (looked up): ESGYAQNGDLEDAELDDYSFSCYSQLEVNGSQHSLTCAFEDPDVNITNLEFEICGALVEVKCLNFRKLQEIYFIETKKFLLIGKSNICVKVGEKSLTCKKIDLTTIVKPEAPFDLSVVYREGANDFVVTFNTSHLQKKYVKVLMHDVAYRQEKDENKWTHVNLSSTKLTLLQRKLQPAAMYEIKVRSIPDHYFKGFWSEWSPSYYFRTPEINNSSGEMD

[2] = molecular target: T2, IL-7 receptor (IL-7R; CD127/CD132) on cells (human, UniProt P16871 21-459; P31785 23-369); assay: flow cytometry on co-cultured U937 PD-1+CD127+ and U937 PD-1-CD127+ cells (1:1), detection with anti-human IgG-PE; bars of the binding EC50 (nM), n=2
T2 construct: whole, on cells; also called IL-7R on U937 CD127+ cells; IL-7R on human T cells
T2 sequence (looked up) 1: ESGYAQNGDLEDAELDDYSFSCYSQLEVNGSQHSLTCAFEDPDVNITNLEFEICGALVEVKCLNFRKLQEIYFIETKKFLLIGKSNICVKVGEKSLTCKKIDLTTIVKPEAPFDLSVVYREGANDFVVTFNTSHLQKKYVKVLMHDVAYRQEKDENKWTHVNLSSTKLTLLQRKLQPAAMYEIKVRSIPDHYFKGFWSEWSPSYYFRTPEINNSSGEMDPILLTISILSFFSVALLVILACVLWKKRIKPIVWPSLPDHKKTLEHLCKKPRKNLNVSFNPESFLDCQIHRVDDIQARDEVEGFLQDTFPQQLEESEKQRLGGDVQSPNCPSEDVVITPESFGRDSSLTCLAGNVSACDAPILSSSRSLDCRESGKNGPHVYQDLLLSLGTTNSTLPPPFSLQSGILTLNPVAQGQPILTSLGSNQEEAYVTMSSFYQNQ
T2 sequence (looked up) 2: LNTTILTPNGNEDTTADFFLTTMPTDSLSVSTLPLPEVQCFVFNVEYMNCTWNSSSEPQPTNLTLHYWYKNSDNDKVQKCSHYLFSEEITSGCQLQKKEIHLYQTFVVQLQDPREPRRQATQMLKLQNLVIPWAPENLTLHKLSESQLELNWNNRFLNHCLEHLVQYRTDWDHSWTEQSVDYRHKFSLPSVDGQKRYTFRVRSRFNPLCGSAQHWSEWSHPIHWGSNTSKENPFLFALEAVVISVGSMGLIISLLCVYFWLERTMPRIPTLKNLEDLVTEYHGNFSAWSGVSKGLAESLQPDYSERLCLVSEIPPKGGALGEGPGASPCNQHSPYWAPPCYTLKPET

CD127 [3] = molecular target: T1, CD127; assay: Biacore, CD127 immobilised on the sensor chip, molecule at escalating doses

B1: anti PD-1*2 IL-7 W142H*1 (other)
heavy 1: QIQLVQSGSELKKPGASVKVSCKASGYTFTHYAMNWVRQAPGQGLEWMGWINTNTGEPTYAQGFTGRFVFSLDTSVSTAYLQISSLKAEDTAVYYCAREREPGMDNWGQGTLVTVSSASTKGPSVFPLAPSSKSTSGGTAALGCLVKDYFPEPVTVSWNSGALTSGVHTFPAVLQSSGLYSLSSVVTVPSSSLGTQTYICNVNHKPSNTKVDKKVEPKSCDKTHTCPPCPAPELLGGPSVFLFPPKPKDTLMISRTPEVTCVVVDVSHEDPEVKFNWYVDGVEVHNAKTKPREEQYASTYRVVSVLTVLHQDWLNGKEYKCKVSNKALPAPIEKTISKAKGQPREPQVYTLPPCRDELTKNQVSLWCLVKGFYPSDIAVEWESNGQPENNYKTTPPVLDSDGSFFLYSKLTVDKSRWQQGNVFSCSVMHEALHNHYTQKSLSLSPGK
heavy 2: QIQLVQSGSELKKPGASVKVSCKASGYTFTHYAMNWVRQAPGQGLEWMGWINTNTGEPTYAQGFTGRFVFSLDTSVSTAYLQISSLKAEDTAVYYCAREREPGMDNWGQGTLVTVSSASTKGPSVFPLAPSSKSTSGGTAALGCLVKDYFPEPVTVSWNSGALTSGVHTFPAVLQSSGLYSLSSVVTVPSSSLGTQTYICNVNHKPSNTKVDKKV[human IgG1 Fc with changes not written out]GGGGSGGGGSGGGGSDCDIEGKDGKQYESVLMVSIDQLLDSMKEIGSNCLNNEFNFFKRHICDANKEGMFLFRAARKLRQFLKMNSTGDFDLHLLKVSEGTTILLNCTGQVKGRKPAALGEAQPTKSLEENKSLKEQKKLNDLCFLKRLLQEIKTCHNKILMGTKEH
light: DVVMTQSPLSLPVTLGQPASISCRSSQSLVHANTNTYLEWYQQRPGQSPRLLIYKVSNRFSGVPDRFSGSGSGTDFTLKISRVEAEDVGVYYCFQGTHVPNTFGQGTKLEIKRTVAAPSVFIFPPSDEQLKSGTASVVCLLNNFYPREAKVQWKVDNALQSGNSQESVTEQDSKDSTYSLSSTLTLSKADYEKHKVYACEVTHQGLSSPVTKSFNRGEC
notes: also called construction 2; anti PD-1*2/IL-7v*1
EC50 (read off the curve) (CD127 [1]): ~0.9 nM

B2: anti PD-1*1 IL-7 W142H*2 (other)
chain: DKTHTCPPCPAPELLGGPSVFLFPPKPKDTLMISRTPEVTCVVVDVSHEDPEVKFNWYVDGVEVHNAKTKPREEQYASTYRVVSVLTVLHQDWLNGKEYKCKVSNKALPAPIEKTISKAKGQPREPQVYTLPPCRDELTKNQVSLWCLVKGFYPSDIAVEWESNGQPENNYKTTPPVLDSDGSFFLYSKLTVDKSRWQQGNVFSCSVMHEALHNHYTQKSLSLSPGKGGGGSGGGGSGGGGSDCDIEGKDGKQYESVLMVSIDQLLDSMKEIGSNCLNNEFNFFKRHICDANKEGMFLFRAARKLRQFLKMNSTGDFDLHLLKVSEGTTILLNCTGQVKGRKPAALGEAQPTKSLEENKSLKEQKKLNDLCFLKRLLQEIKTCHNKILMGTKEH
heavy: QIQLVQSGSELKKPGASVKVSCKASGYTFTHYAMNWVRQAPGQGLEWMGWINTNTGEPTYAQGFTGRFVFSLDTSVSTAYLQISSLKAEDTAVYYCAREREPGMDNWGQGTLVTVSSASTKGPSVFPLAPSSKSTSGGTAALGCLVKDYFPEPVTVSWNSGALTSGVHTFPAVLQSSGLYSLSSVVTVPSSSLGTQTYICNVNHKPSNTKVDKKV[human IgG1 Fc with changes not written out]GGGGSGGGGSGGGGSDCDIEGKDGKQYESVLMVSIDQLLDSMKEIGSNCLNNEFNFFKRHICDANKEGMFLFRAARKLRQFLKMNSTGDFDLHLLKVSEGTTILLNCTGQVKGRKPAALGEAQPTKSLEENKSLKEQKKLNDLCFLKRLLQEIKTCHNKILMGTKEH
light: B1 light
notes: also called construction 4; anti PD-1*1/IL-7v*2
binding result [2]: binds

B3: anti PD-1*2 IL7 wild type*2 (other)
heavy: QIQLVQSGSELKKPGASVKVSCKASGYTFTHYAMNWVRQAPGQGLEWMGWINTNTGEPTYAQGFTGRFVFSLDTSVSTAYLQISSLKAEDTAVYYCAREREPGMDNWGQGTLVTVSSASTKGPSVFPLAPCSRSTSESTAALGCLVKDYFPEPVTVSWNSGALTSGVHTFPAVLQSSGLYSLSSVVTVPSSSLGTKTYTCNVDHKPSNTKVDKRV[human IgG4 Fc with S228P L445P (EU numbers) not written out]GGGGSGGGGSGGGGSDCDIEGKDGKQYESVLMVSIDQLLDSMKEIGSNCLNNEFNFFKRHICDANKEGMFLFRAARKLRQFLKMNSTGDFDLHLLKVSEGTTILLNCTGQVKGRKPAALGEAQPTKSLEENKSLKEQKKLNDLCFLKRLLQEIKTCWNKILMGTKEH
light: B1 light
notes: Corresponds to construction 1 but with wild type IL-7; also called BICKI-IL-7 WT; anti PD-1*2 IL7WT*2
Kd (CD127 [3]): 0.87 nM
